T1: human ASGR1, full length, on cells (human, UniProt P07306 1-291)
T1 sequence (looked up): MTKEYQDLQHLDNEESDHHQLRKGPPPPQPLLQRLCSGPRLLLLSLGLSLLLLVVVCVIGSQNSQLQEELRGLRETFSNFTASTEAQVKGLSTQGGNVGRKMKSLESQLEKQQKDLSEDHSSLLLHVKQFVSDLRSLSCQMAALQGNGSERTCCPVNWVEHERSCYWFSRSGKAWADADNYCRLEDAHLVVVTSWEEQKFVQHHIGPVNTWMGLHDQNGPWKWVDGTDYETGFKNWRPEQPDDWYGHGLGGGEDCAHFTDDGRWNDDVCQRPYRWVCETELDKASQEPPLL

T2: human ZNRF3 extracellular domain (hZNRF3 ECD) (human, UniProt Q9ULT6 56-219, biotinylated (His-Avi tag))
T2 construct: Expressed with a His-Avi tag at the N-terminus and biotinylated; also called ZRNF3
T2 sequence: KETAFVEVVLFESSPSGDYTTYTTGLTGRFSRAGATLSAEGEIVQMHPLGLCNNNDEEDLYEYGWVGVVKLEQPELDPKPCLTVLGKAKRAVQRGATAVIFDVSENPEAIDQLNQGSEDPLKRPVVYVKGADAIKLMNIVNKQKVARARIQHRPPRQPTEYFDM

T3: human RNF43 extracellular domain (hRNF43 ECD) (human, UniProt Q68DV7 44-197, biotinylated (His-Avi tag))
T3 construct: Expressed with a His-Avi tag at the N-terminus and biotinylated; also called human RNF3 (Q44-D198)
T3 sequence: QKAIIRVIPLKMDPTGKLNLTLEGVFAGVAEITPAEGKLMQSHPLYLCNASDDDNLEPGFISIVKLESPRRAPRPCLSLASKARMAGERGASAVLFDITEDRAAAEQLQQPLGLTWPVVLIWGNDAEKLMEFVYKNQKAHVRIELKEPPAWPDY

T4: Fc portion of human IgG1-fused LGR5-ECD (R&D systems) (human, UniProt O75473 22-557, limits assumed)
T4 construct: extracellular domain; Bought reagent; also called LGRS; recombinant LGR5 protein; not shown: Fc portion of human IgG1
T4 sequence (looked up): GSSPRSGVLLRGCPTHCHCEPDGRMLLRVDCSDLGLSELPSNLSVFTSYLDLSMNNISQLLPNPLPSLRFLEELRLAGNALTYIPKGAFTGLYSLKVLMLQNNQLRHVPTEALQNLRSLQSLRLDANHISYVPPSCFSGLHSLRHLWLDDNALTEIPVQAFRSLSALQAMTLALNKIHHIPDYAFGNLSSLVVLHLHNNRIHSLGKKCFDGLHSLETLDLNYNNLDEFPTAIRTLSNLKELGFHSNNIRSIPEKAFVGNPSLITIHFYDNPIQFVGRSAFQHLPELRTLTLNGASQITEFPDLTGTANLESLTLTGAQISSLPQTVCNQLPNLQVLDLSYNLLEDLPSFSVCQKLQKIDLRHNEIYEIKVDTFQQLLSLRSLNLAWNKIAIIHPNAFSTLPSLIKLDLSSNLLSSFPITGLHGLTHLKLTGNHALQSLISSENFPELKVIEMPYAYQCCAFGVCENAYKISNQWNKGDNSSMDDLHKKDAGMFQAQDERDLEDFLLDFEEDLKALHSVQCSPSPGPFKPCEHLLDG


What was measured:
[1] = target: T1, human ASGR1, full length, on cells; experiment: cell-based or functional assay
[2] = target: T2, human ZNRF3 extracellular domain …; experiment: BLI (Octet), biotinylated ZNRF3 ECD on SA sensor
Method: (§1) Affinity measurement: Binding kinetics of the RSPO-derived proteins to LGRS, RNF43, or ZNRF3, and binding of the anti-ASGR Fabs to human and/or mouse ASGR1 were determined by bio-layer interferometry (BLI) using Octet Red 96 (PALL ForteBio, Fremont, CA) instruments at 30° C., 1000 rpm with either streptavidin (SA) or anti-hIgG Fc capture (AHC) biosensors. […] Following capture of ECDs of RNF43, ZNRF3 or LGRS, the biosensors were dipped into wells containing the relevant test molecules at 7 different concentrations in running buffer plus a well with only running buffer as a reference channel. KD was determined by steady-state analysis based on the average responses between 140 to 145 seconds of association phase, for binding to LGRS, RNF43, and ZNRF3. For the binding to ASGR, KD was determined by curve model fitting using the Octet® Red data analysis software (Fortebio)

[3] = target: T3, human RNF43 extracellular domain …; experiment: BLI (Octet), biotinylated RNF43 ECD on SA sensor
Method: as §1

[4] = target: T4, Fc portion of human IgG1-fused LGR5-ECD …; experiment: BLI (Octet), LGR5-ECD-Fc on AHC sensor
Method: as §1

| shift of the STF dose response curve in Huh-7 STF cells [1] | binding result [2] | binding result [3] | binding result [4] | Binder |
| --- | --- | --- | --- | --- |
| ~6 fold | binds | binds |  | αASGR1-RSPO2-WT (anti-ASGR1, RSPO2 wild type) (other, scFv of an ASGR1 antibody (e.g., RO-01) fused to the N-terminus of the RSPO2 fragment; FLAG-His tag) [letters of about 100 residues omitted]DFSSRRWYLEYWGQGTLVTVSSGGGGSGGGGSGGGGSELTQDPAVSVALGQTVRITCQGDSLRSYYASWYQQKPGQAPVLVIYGKNNRPSGIPDRFSGSSSGNTASLTITGAQAEDEADYYCNSLERIGYLSYVFGGGTKLTVLGSGGSNPICKGCLSCSKDNGCSRCQQKLFFFLRREGMRQYGECLHSCPSGYYGHRAPDMNRCARCRIENCDSCFSKDFCTKCKVGFYLHRGRCFDECPDGFAPLEETMECVEGGDYKDDDDKGSHHHHHHHH |
|  | no binding | no binding | no binding | αASGR1-RSPO2-5mut (anti-ASGR1, RSPO2 (R65A/R69A/Q70A/F105A/F109A)) (other, scFv of an ASGR1 antibody fused to the RSPO2 fragment with five mutations; FLAG-His tag; also called αASGR1-RSPO2-Smut) [letters of about 100 residues omitted]DFSSRRWYLEYWGQGTLVTVSSGGGGSGGGGSGGGGSELTQDPAVSVALGQTVRITCQGDSLRSYYASWYQQKPGQAPVLVIYGKNNRPSGIPDRFSGSSSGNTASLTITGAQAEDEADYYCNSLERIGYLSYVFGGGTKLTVLGSGGSNPICKGCLSCSKDNGCSRCQQKLFFFLRAEGMAAYGECLHSCPSGYYGHRAPDMNRCARCRIENCDSCRSKDACTKCKVGFYLHRGRCFDECPDGFAPLEETMECVEGGDYKDDDDKGSHHHHHHHH |

Source: patent publication US20210380678A1 (SURROZEN OPERATING, published 2021)
